A lower IC50 marks a more sensitive line; fits outside the tested doses are given as limits. The AUC spans the tested range (256-fold, ending at the top dose) of the same fit; the more sensitive the line, the further below 1. A top dose marked as inferred comes from the curve model; the source does not state it.
Tests used:
Assay in all cases: Viability of human cancer cell lines after 72 h of drug (GDSC screen)
NG-25 = compound: CCN1CCN(Cc2ccc(NC(=O)c3ccc(C)c(Oc4ccnc5[nH]ccc45)c3)cc2C(F)(F)F)CC1 [NG-25]; details: top dose 10.24 µM; top dose inferred
Procedure: (§1)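 Human cancer cell lines in 384-well plates, medium with 10% serum, drug for 72 h over a 256-fold dose range (nine 2-fold or five 4-fold steps up to the top dose). Adherent lines were fixed and stained with the nucleic acid dye Syto60, suspension lines read with resazurin; signal relative to control wells, capped at 0 and 100%. One two-parameter sigmoid per drug and line, fitted in a mixed model over all curves with the slope shared within a line.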

GSK-1904529A = compound: CCc1cc(Nc2nccc(-c3c(-c4ccc(OC)c(C(=O)Nc5c(F)cccc5F)c4)nc4ccccn34)n2)c(OC)cc1N1CCC(N2CCN(S(C)(=O)=O)CC2)CC1 [GSK-1904529A]; details: top dose 1.024 µM; top dose inferred
Procedure: as §1

PFI-1 = compound: COc1ccccc1S(=O)(=O)Nc1ccc2c(c1)CN(C)C(=O)N2 [PFI-1]; details: top dose 10 µM; top dose inferred
Procedure: as §1

Tipifarnib = compound: Cn1cncc1[C@@](N)(c1ccc(Cl)cc1)c1ccc2c(c1)c(-c1cccc(Cl)c1)cc(=O)n2C [Tipifarnib]; details: top dose 16 µM; top dose inferred
Procedure: as §1

Cell Line | AUC (NG-25) | IC50 (NG-25) | AUC (GSK-1904529A) | IC50 (GSK-1904529A) | AUC (PFI-1) | IC50 (PFI-1) | AUC (Tipifarnib) | IC50 (Tipifarnib)
PA-TU-8902 (pancreas, adherent) | 0.932 | > 10.2 µM | 0.982 | > 1.02 µM | 0.978 | > 10 µM | 0.794 | 8.77 µM
PA-TU-8988T (pancreas, adherent) | 0.915 | > 10.2 µM | 0.983 | > 1.02 µM | 0.769 | 3.79 µM | 0.731 | 4.56 µM
PANC-02-03 (pancreas, adherent) | 0.896 | > 10.2 µM | 0.981 | > 1.02 µM | 0.805 | 6.28 µM | 0.847 | 15.6 µM
PANC-03-27 (pancreas, adherent) | 0.895 | > 10.2 µM | 0.988 | > 1.02 µM | 0.921 | > 10 µM | 0.714 | 3.84 µM
PANC-04-03 (pancreas, adherent) | 0.947 | > 10.2 µM | 0.957 | > 1.02 µM | 0.875 | > 10 µM | 0.698 | 5.12 µM
PANC-08-13 (pancreas, adherent) | 0.849 | > 10.2 µM | 0.97 | > 1.02 µM | 0.884 | > 10 µM | 0.922 | > 16 µM
PANC-10-05 (pancreas, adherent) | 0.958 | > 10.2 µM | 0.947 | > 1.02 µM | 0.875 | > 10 µM | 0.663 | 3.25 µM
PC-3 (prostate, adherent) | 0.935 | > 10.2 µM | 0.936 | > 1.02 µM | 0.831 | 8.35 µM | 0.814 | 11.2 µM
PC-3 [JPC-3] (lung adenocarcinoma, adherent) | 0.862 | > 10.2 µM | 0.97 | > 1.02 µM | 0.95 | > 10 µM | 0.701 | 4.48 µM
PC-14 (lung adenocarcinoma, adherent) | 0.819 | 5.02 µM | 0.987 | > 1.02 µM | 0.928 | > 10 µM | 0.821 | 7.97 µM
PCI-4B (head and neck, adherent) | 0.887 | > 10.2 µM | 0.96 | > 1.02 µM | 0.729 | 2.69 µM | 0.519 | 1.12 µM
PCI-6A (head and neck, adherent) | 0.817 | 5.58 µM | 0.959 | > 1.02 µM | 0.915 | > 10 µM | 0.7 | 3.61 µM
PCI-15A (head and neck, adherent) | 0.983 | > 10.2 µM | 0.986 | > 1.02 µM | 0.94 | > 10 µM | 0.818 | 9.11 µM
PCI-30 (head and neck, adherent) | 0.984 | > 10.2 µM | 0.984 | > 1.02 µM | 0.853 | > 10 µM | 0.949 | > 16 µM
PCI-38 (head and neck, adherent) | 0.825 | 6.19 µM | 0.979 | > 1.02 µM | 0.78 | 4.14 µM | 0.866 | 14.5 µM
PE/CA-PJ15 (head and neck, adherent) | 0.954 | > 10.2 µM | 0.985 | > 1.02 µM | 0.859 | 9.38 µM | 0.965 | > 16 µM
PFSK-1 (medulloblastoma, adherent) | 0.953 | > 10.2 µM | 0.986 | > 1.02 µM | 0.787 | 4.65 µM | 0.894 | > 16 µM
PL4 (pancreas, adherent) | 0.908 | > 10.2 µM | 0.987 | > 1.02 µM | 0.913 | > 10 µM | 0.785 | 7.11 µM
PL18 (pancreas, adherent) | 0.899 | > 10.2 µM | 0.983 | > 1.02 µM | 0.986 | > 10 µM | 0.774 | 6.21 µM
RC-K8 (B-cell lymphoma, suspension) | 0.921 | > 10.2 µM | 0.992 | > 1.02 µM | 0.991 | > 10 µM | 0.918 | > 16 µM
RCM-1 (large intestine, adherent) | 0.973 | > 10.2 µM | 0.982 | > 1.02 µM | 0.911 | > 10 µM | 0.909 | > 16 µM
RD (rhabdomyosarcoma, adherent) | 0.845 | 8.47 µM | 0.985 | > 1.02 µM | 0.843 | 8.14 µM | 0.768 | 6.54 µM
RERF-GC-1B (stomach, adherent) | 0.669 | 2.01 µM | 0.985 | > 1.02 µM | 0.911 | > 10 µM | 0.887 | > 16 µM
RERF-LC-KJ (lung adenocarcinoma, adherent) | 0.929 | > 10.2 µM | 0.957 | > 1.02 µM | 0.787 | 4.49 µM | 0.711 | 4.03 µM
RERF-LC-MS (lung adenocarcinoma, adherent) | 0.983 | > 10.2 µM | 0.983 | > 1.02 µM | 0.869 | 9.64 µM | 0.97 | > 16 µM
RERF-LC-Sq1 (lung squamous cell carcinoma, adherent) | 0.936 | > 10.2 µM | 0.976 | > 1.02 µM | 0.904 | > 10 µM | 0.897 | > 16 µM
RH-41 (rhabdomyosarcoma, adherent) | 0.992 | > 10.2 µM | 0.985 | > 1.02 µM | 0.85 | 5.77 µM | 0.856 | 9.73 µM
RKN (ovary, adherent) | 0.909 | > 10.2 µM | 0.953 | > 1.02 µM | 0.915 | > 10 µM | 0.752 | 5.6 µM
RMG-I (ovary, adherent) | 0.81 | 6.5 µM | 0.981 | > 1.02 µM | 0.654 | 1.8 µM | 0.865 | > 16 µM
RO82-W-1 (thyroid, adherent) | 0.927 | > 10.2 µM | 0.955 | > 1.02 µM | 0.893 | > 10 µM | 0.752 | 6.66 µM
